pKi: −log10 of the molar value.

One assay deals with Recombinant heterodimeric HCV NS3/NS4A protease (strain 1a) (Hepatitis C virus genotype 1a, UniProt P27958). The experiment in a line: Spectrophotometric assay for HCV serine protease inhibitory activity (chromogenic ester substrates). Type of assay: biochemical. To be noted: HCV Assay Range Ki* (nM), competitive inhibition, 30° C., pH 6.5 assay buffer. The method, then:
Spectrophotometric assay for the HCV serine protease was performed on the inventive compounds by following the procedure described by R. Zhang et al, Analytical Biochemistry, 270 (1999) 268-275, the disclosure of which is incorporated herein by reference. The assay based on the proteolysis of chromogenic ester substrates is suitable for the continuous monitoring of HCV NS3 protease activity. The substrates were derived from the P side of the NS5A-NS5B junction sequence (Ac-DTEDWX(Nva), where X=A or P) whose C-terminal carboxyl groups were esterified with one of four different chromophoric alcohols (3- or 4-nitrophenol, 7-hydroxy-4-methyl-coumarin, or 4-phenylazophenol). Presented below are the synthesis, characterization and application of these novel spectrophotometric ester substrates to high throughput screening and detailed kinetic evaluation of HCV NS3 protease inhibitors.
Protein concentrations were determined by the Biorad dye method using recombinant HCV protease standards previously quantified by amino acid analysis. Prior to assay initiation, the enzyme storage buffer (50 mM sodium phosphate pH 8.0, 300 mM NaCl, 10% glycerol, 0.05% lauryl maltoside and 10 mM DTT) was exchanged for the assay buffer (25 mM MOPS pH 6.5, 300 mM NaCl, 10% glycerol, 0.05% lauryl maltoside, 5 μM EDTA and 5 μM DTT) utilizing a Biorad Bio-Spin P-6 prepacked column. Substrate Synthesis and Purification: The synthesis of the substrates was done as reported by R. Zhang et al, (ibid.) and was initiated by anchoring Fmoc-Nva-OH to 2-chlorotrityl chloride resin using a standard protocol (K. Barlos et al, Int. J. Pept. Protein Res., 37 (1991), 513-520). The peptides were subsequently assembled, using Fmoc chemistry, either manually or on an automatic ABI model 431 peptide synthesizer. […] The combined filtrate and DCM wash was evaporated azeotropically (or repeatedly extracted by aqueous Na2CO3 solution) to remove the acid used in cleavage. The DCM phase was dried over Na2SO4 and evaporated.
The ester substrates were assembled using standard acid-alcohol coupling procedures (K. Holmber et al, Acta Chem. Scand., B33 (1979) 410-412). Peptide fragments were dissolved in anhydrous pyridine (30-60 mg/ml) to which 10 molar equivalents of chromophore and a catalytic amount (0.1 eq.) of para-toluenesulfonic acid (pTSA) were added. Dicyclohexylcarbodiimide (DCC, 3 eq.) was added to initiate the coupling reactions. Product formation was monitored by HPLC and found to be complete following 12-72 hour reaction at room temperature. Pyridine solvent was evaporated under vacuum and further removed by azeotropic evaporation with toluene. The peptide ester was deprotected with 95% TFA in DCM for two hours and extracted three times with anhydrous ethyl ether to remove excess chromophore. The deprotected substrate was purified by reversed phase HPLC on a C3 or C8 column with a 30% to 60% acetonitrile gradient (using six column volumes). The overall yield following HPLC purification was approximately 20-30%. The molecular mass was confirmed by electrospray ionization mass spectroscopy. The substrates were stored in dry powder form under desiccation.
Spectra of Substrates and Products: Spectra of substrates and the corresponding chromophore products were obtained in the pH 6.5 assay buffer. Extinction coefficients were determined at the optimal off-peak wavelength in 1-cm cuvettes (340 nm for 3-Np and HMC, 370 nm for PAP and 400 nm for 4-Np) using multiple dilutions. The optimal off-peak wavelength was defined as that wavelength yielding the maximum fractional difference in absorbance between substrate and product (product OD−substrate OD)/substrate OD). Protease Assay: HCV protease assays were performed at 30° C. using a 200 μl reaction mix in a 96-well microtiter plate.
`CCCC(NC(=O)[C@@H]1CC2(CN1C(=O)C(NC(=O)OC(C)(C)C)C(C)(C)C)SCCCS2)C(=O)C(=O)NCC(=O)NC(c1ccccc1)c1ncn(COCC[Si](C)(C)C)n1` (stereo partly drawn) [XIX]: the inhibitory constant (Ki) is 1000 to 10000 nM.

The assay is the same for the next values; noted with them: competitive inhibition, 30° C., pH 6.5 assay buffer, read-out: HCV Assay Range Ki*.
In the case of `CCCC(NC(=O)[C@@H]1CC2(CN1C(=O)C(NC(=O)OC(C)(C)C)C(C)(C)C)SCCCS2)C(=O)C(=O)NCC(=O)NC(c1ccccc1)c1cccs1` (single isomer, unassigned) [XXIII], the pKi is 5.00 to 6.00.
As for `CCCC(NC(=O)C(CC(C)C)NC(=O)C(NC(=O)OCC(C)C)C1CCCCC1)C(=O)C(=O)NCC(=O)NC(c1ccc(S(=O)(=O)NC(C)C)cc1)c1nccn1C` (stereo not drawn) [IX], the pKi is 5.00 to 6.00.
As for `CCCC(NC(=O)C1C[C@@H](OCc2ccccc2)CN1C(=O)C(NC(=O)OCC(C)C)C1CCCCC1)C(=O)C(=O)NCC(=O)NC(c1ccccc1)c1ccccn1` (stereo partly drawn) [III], the negative-log Ki (pKi) was 6.00 to 7.00.
Same read-out and setting: the value for `CCCC(NC(=O)[C@@H]1CC2(CN1C(=O)C(NC(=O)Cc1ccccc1)C(C)(C)C)SCCCS2)C(=O)C(=O)NCC(=O)NC(c1ccccc1)c1nc[nH]n1` (stereo partly drawn) [XIV] was 6.00 to 7.00; that for `CCCC(NC(=O)[C@@H]1CC2(CN1C(=O)C(NC(=O)OCC(C)C)C1CCCCC1)SCCCS2)C(=O)C(=O)NCC(=O)NC(c1ccccc1)c1nc[nH]n1` (stereo partly drawn) [XI] was 6.00 to 7.00.
Regarding `CCCC(NC(=O)C1CC2CN1C(=O)[C@H](C(C)(C)C)NC(=O)CCc1ccc(cc1)OCCCO2)C(=O)C(=O)NCC(=O)NC(c1ccccc1)c1nnnn1C(C)(C)C` (stereo partly drawn) [XXVII], the pKi was 5.00 to 6.00.
As for `CCCC(NC(=O)[C@@H]1C[C@@H](OCc2ccccc2)CN1C(=O)C(NC(=O)OCC(C)C)C1CCCCC1)C(=O)C(=O)NCC(=O)NC(c1ccccn1)c1ccccn1` (stereo partly drawn) [V], the negative-log Ki (pKi) is 6.00 to 7.00.
Still for that read-out and setting: next, `CCCC(NC(=O)C(CC(C)C)NC(=O)C(NC(=O)OCC(C)C)C1CCCCC1)C(=O)C(=O)NCC(=O)NC(c1ccc(S(=O)(=O)NCC2CCCCC2)cc1)c1nccn1C` (stereo not drawn) [VIII]: 4.30 to 5.00; `CCCC(NC(=O)[C@@H]1C[C@@H](OCc2ccccc2)CN1C(=O)C(NC(=O)OCC(C)C)C1CCCCC1)C(=O)C(=O)NCC(=O)NC(c1ccc(O)cc1)c1ccccn1` (stereo partly drawn) [VI]: 5.00 to 6.00.
Still for that read-out and setting: the value for `CCCC(NC(=O)[C@@H]1CC2(CN1C(=O)C(NC(=O)OC(C)(C)C)C(C)(C)C)SCCCS2)C(=O)C(=O)NCC(=O)NC(c1ccccc1)c1ccccc1` (stereo partly drawn) [XV] was 6.00 to 7.00; that for `CCCC(NC(=O)[C@@H]1CC2(CN1C(=O)C(NC(=O)OC(C)(C)C)C(C)(C)C)SCCCS2)C(=O)C(=O)NCC(=O)NC(c1ccccc1)c1nccs1` (stereo partly drawn) [XXV] was 6.00 to 7.00; that for `CCCC(NC(=O)[C@@H]1CC2(CN1C(=O)C(NC(=O)Cc1ccccc1)C(C)(C)C)SCCCS2)C(=O)C(=O)NCC(=O)NC(c1ccccc1)c1ccccc1` (stereo partly drawn) [XVII] was 6.00 to 7.00.
Same read-out and setting: next, `CCCC(NC(=O)C1CC2(CN1C(=O)C(NC(=O)OCC(C)C)C1CCCCC1)SCCCS2)C(=O)C(=O)NCC(=O)NC(c1ccccc1)c1nnn[nH]1` (stereo not drawn) [X]: 7.00 to 8.00; `CCCC(NC(=O)[C@@H]1CC2(CN1C(=O)C(NC(=O)OCC(C)C)C(C)(C)C)SCCCS2)C(=O)C(=O)NCC(=O)NC(c1ccccc1)c1ccccc1` (stereo partly drawn) [XVI]: 6.00 to 7.00; `CCCC(NC(=O)C(CC(C)C)NC(=O)C(NC(=O)OC(C)(C)C)C1CCCCC1)C(=O)C(=O)NCC(=O)NC(C(=O)OC)(c1ccccc1)c1ccccc1` (stereo not drawn) [VII]: 5.00 to 6.00.
In the case of `CCCC(NC(=O)C1CC2CN1C(=O)[C@H](C(C)(C)C)NC(=O)Cc1cccc(c1)OCCCO2)C(=O)C(=O)NCC(=O)NC(c1ccccc1)c1nnnn1C(C)(C)C` (stereo partly drawn) [XXVI], the negative logarithm of the Ki (pKi) was 6.00 to 7.00.
Consider `CCCC(NC(=O)[C@@H]1CC2(CN1C(=O)C(NC(=O)OC(C)(C)C)C(C)(C)C)SCCCS2)C(=O)C(=O)NCC(=O)NC(c1ccccc1)c1cccs1` (single isomer, unassigned) [XXII], for which the pKi is 6.00 to 7.00.
Still for that read-out and setting: next, `CCCC(NC(=O)[C@@H]1CC2(CN1C(=O)C(NC(=O)OC(C)(C)C)C(C)(C)C)SCCCS2)C(=O)C(=O)NCC(=O)NC(c1ccccc1)c1nc[nH]n1` (stereo partly drawn) [XII]: 7.00 to 8.00; `CCCC(NC(=O)C(CC(C)C)NC(=O)C(NC(=O)OCC(C)C)C1CCCCC1)C(=O)C(=O)NCC(=O)NC(c1ccccn1)c1ccccn1` (stereo not drawn) [IV]: 5.00 to 6.00.
On the same count and under the same terms, the value for `CCCC(NC(=O)[C@@H]1CC2(CN1C(=O)C(NC(=O)OCC(C)C)C(C)(C)C)SCCCS2)C(=O)C(=O)NCC(=O)NC(c1ccccc1)c1nc[nH]n1` (stereo partly drawn) [XIII] was 6.00 to 7.00; that for `CCCC(NC(=O)C1CC2(CN1C(=O)C(NC(=O)OC(C)(C)C)C(C)(C)C)SCCCS2)C(=O)C(=O)NCC(=O)NC(c1ccccc1)c1nnnn1C` (stereo not drawn) [XX] was 6.00 to 7.00; that for `CCCC(NC(=O)C1CC2(CN1C(=O)C(NC(=O)OC(C)(C)C)C(C)(C)C)SCCCS2)C(=O)C(=O)NCC(=O)NC(c1ccccc1)c1nnn[nH]1` (stereo not drawn) [XVIII] was 6.00 to 7.00.
Same read-out and setting: the value for `CCCC(NC(=O)[C@@H]1CC2(CN1C(=O)C(NC(=O)OC(C)(C)C)C(C)(C)C)SCCCS2)C(=O)C(=O)NCC(=O)NC(c1ccccc1)c1ccco1` (stereo partly drawn) [XXIV] was 6.00 to 7.00.

The record behind these values is patent US6911428B2, “Diaryl peptides as NS3-serine protease inhibitors of hepatitis C virus” (Schering Corporation, priority 2000, dated 2005).
